These are yes or no findings as the source states them, for the method shown. For some assays here: Binding seen in cells or lysates may run through a third protein. Some entries that bind do so weakly or less than the wild type. For some assays here: Where a sequence is shown, tags or fusion partners need not be part of it. Values belong to the substance of their own block, whether it stands above or below them.
Assays:
[1] = biological target: FLAG-VCF1 isoform 1 (human) (UniProt Q969W3); assay: co-IP; anti-FLAG (M2 agarose) immunoprecipitation from lysates of HEK293T cells ectopically expressing FLAG-VCF1/2; lysis buffer 50 mM Tris-HCl pH 7.6, 150 mM NaCl, 2 mM MgCl2, 1% NP40, 10% glycerol, 1 mM DTT; overnight at 4°C; immunoblot of endogenous p97 and cofactors
[2] = biological target: FLAG-VCF1 isoform 2 (human) (UniProt Q969W3); assay: as above
[3] = biological target: GST-VCF1 isoform 2 (human) (UniProt Q969W3); assay: pull-down; 0.76 nmole GST fusion immobilised on 10 µl glutathione sepharose beads; 0.2 nmole (monomer) p97 or 0.5 nmole His6-FAF1 (or other purified p97 cofactors) in TBS, 2 mM DTT, 1% Triton X-100; SDS-PAGE with Coomassie or 2,2,2-trichloroethanol staining, FAF1 immunoblot; both purified
[4] = biological target: GST-VCF1 isoform 1 (human) (UniProt Q969W3); assay: as above
[5] = biological target: T1, GST-VCF2 isoform 3 (human) (UniProt Q5XKR9); assay: as above
T1 sequence: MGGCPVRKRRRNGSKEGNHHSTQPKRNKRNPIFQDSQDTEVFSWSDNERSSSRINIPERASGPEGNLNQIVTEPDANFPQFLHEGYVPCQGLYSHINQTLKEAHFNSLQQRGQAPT

By UniProt entry, the sequences of proteins in these tests, tags left out. Where a name states a change or a piece, a line headed by the entry shows the natural chain unless it says otherwise. Chains listed by the source or under a name are the forms on record and can include a tag or linker.
UniProt Q969W3: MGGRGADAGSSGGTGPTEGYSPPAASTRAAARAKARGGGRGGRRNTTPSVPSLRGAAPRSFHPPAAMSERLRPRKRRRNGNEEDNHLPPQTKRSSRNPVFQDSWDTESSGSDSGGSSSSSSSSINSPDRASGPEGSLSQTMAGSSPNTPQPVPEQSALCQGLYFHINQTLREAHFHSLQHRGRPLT
GST-VCF1 isoform 1 (Q969W3, form named): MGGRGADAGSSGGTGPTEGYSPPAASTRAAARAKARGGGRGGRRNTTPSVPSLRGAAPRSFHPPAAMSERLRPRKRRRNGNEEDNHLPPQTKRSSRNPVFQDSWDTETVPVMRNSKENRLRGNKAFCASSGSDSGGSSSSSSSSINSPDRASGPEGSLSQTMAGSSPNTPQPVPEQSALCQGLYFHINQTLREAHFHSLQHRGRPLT
UniProt Q9UNN5: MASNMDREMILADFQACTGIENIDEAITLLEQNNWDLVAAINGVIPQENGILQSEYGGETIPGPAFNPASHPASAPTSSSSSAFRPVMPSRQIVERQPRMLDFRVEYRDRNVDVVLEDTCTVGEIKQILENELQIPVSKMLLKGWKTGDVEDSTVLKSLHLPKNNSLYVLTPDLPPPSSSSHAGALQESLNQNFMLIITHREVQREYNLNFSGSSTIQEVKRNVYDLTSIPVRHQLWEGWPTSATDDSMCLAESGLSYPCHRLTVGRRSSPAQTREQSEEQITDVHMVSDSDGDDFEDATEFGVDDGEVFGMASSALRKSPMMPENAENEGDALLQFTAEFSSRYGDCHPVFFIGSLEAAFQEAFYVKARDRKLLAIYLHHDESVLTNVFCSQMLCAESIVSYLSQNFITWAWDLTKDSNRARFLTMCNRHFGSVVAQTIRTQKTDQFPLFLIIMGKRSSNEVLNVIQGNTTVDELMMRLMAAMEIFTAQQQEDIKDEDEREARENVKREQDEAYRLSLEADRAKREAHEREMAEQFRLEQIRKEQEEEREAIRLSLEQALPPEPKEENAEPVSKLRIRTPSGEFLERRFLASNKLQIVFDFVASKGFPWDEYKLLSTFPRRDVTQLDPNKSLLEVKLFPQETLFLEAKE

[6] = biological target: T2, FLAG-VCF2 isoform 3 (human) (UniProt Q5XKR9); assay: co-IP; anti-FLAG (M2 agarose) immunoprecipitation from lysates of HEK293T cells ectopically expressing FLAG-VCF1/2; lysis buffer 50 mM Tris-HCl pH 7.6, 150 mM NaCl, 2 mM MgCl2, 1% NP40, 10% glycerol, 1 mM DTT; overnight at 4°C; immunoblot of endogenous p97 and cofactors
T2 sequence: T1 sequence

[7] = biological target: T3, biotinylated peptide spanning the conserved C-terminal alpha-helix and flanking residues of VCF1 (C180-G203 of isoform 1) (human); assay: pull-down; 5 nmole N-terminally biotinylated peptide immobilised on 10 µl streptavidin sepharose beads; 0.2 nmole (monomer) p97 variants in TBS, 2 mM DTT, 0.1% Triton X-100; SDS-PAGE, Coomassie staining; both purified
T3 sequence (peptide, biotin on the N-terminus): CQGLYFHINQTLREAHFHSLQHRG

- binding [1]: binds
- binding [2]: binds
Substance: FAF1, endogenous (from UniProt Q9UNN5 1-650)

- binding [3]: binds
- binding [4]: binds
- binding [5]: no binding (tested: 0.5 nmole His6-FAF1)
Substance: His6-FAF1 (from UniProt Q9UNN5 1-650)

- binding [6]: binds
Substance: p97, endogenous (from UniProt P55072 1-806)

- binding [7]: binds
- binding [5]: binds
Substance: p97, wild type, full length, recombinant (from UniProt P55072 1-806)

Reference: publication PMC10541173
